# Assay results taken from the supplement of paper PMC10126150.
# Values marked as one replicate rest on one cluster of the flow cell; about a third of the high ones do not repeat.
# Tested on: ATP
# Assay: switch fluorescence ratio, 500 uM ATP over buffer (Cy3 cluster intensity, sum of 5 cycles each) (fold (ratio)); higher = stronger signal-on switching upon ATP binding; sequences stand for … in TCGTCGGCAGCGTCAGATGTGTATAAGAGACAGTTTTTTTTTTTTTTTTTTTTTTTTT…TC
# Settings: aptamer strand: ATP DNA aptamer (quencher-CACCTGGGGGAGTATTGCGGAGGAAGG + anchor), 100 nM annealed; ATP concentration: 500 uM; one replicate
# In short: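 Imaging in selection buffer was followed by imaging after 15 min with 500 uM ATP at 22 °C, for Cy3-labelled switching-strand clusters annealed to 100 nM quencher-labelled ATP aptamer on a modified Illumina MiSeq flow-cell. Five of these buffer/ATP cycles ran, separated by NaOH stripping and re-annealing. The fluorescence ratio per cluster is summed target-cycle over summed buffer-cycle Cy3 intensity, averaged per switch-domain sequence; clusters outside 100-1000 RFU were removed.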
# 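Also: ATP exposure 15 min at 22 °C before imaging.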
row,Sequence,switch fluorescence ratio
1,GGGTTGAGCC,0.999
2,GGGTTGCCAT,0.977
3,GGGTTGGTCC,0.99
4,GGGTTGTGCA,0.989
5,GGGTTTAGCT,1.01
6,GGGTTTGCTA,0.989
7,GGGTTTTAAT,1.02
8,GGGTTTTTA,1.04
9,GGTAAACATG,1.04
10,GGTAAACGCT,1.03
11,GGTAAAGAAG,0.992
12,GGTAAAGCGC,0.961
13,GGTAACTATT,1.03
14,GGTAAGAAAA,0.982
15,GGTAAGAGTC,1.07
16,GGTAAGCCGG,1
17,GGTAAGGCCC,1.02
18,GGTAATATAT,1.01
19,GGTAATGGAA,0.982
20,GGTAATTGAT,1.03
21,GGTACAGTCT,1.02
22,GGTACCGGCG,1.02
23,GGTACCTGAT,1.2
24,GGTACGAA,1.05
25,GGTACGAGTA,0.97
26,GGTAGACGGC,1.08

row,Sequence,switch fluorescence ratio
1,GGTAGACTCC,1.12
2,GGTAGAGAAC,1.08
3,GGTAGAGTTT,1.03
4,GGTAGCCAGT,0.978
5,GGTAGCCATA,1.03
6,GGTAGCGCGT,0.997
7,GGTAGCGTTT,0.941
8,GGTAGCTCTA,0.977
9,GGTAGGAGT,0.97
10,GGTAGGTGCG,0.978
11,GGTAGTACT,1.02
12,GGTAGTGCTT,1
13,GGTAGTGTGT,1.02
14,GGTATCCCTC,1.06
15,GGTATCGTTT,0.98
16,GGTATGAGTC,0.965
17,GGTATGCCCT,1.04
18,GGTATTCCCG,1.05
19,GGTATTTTGT,0.988
20,GGTCAAATT,1.01
21,GGTCAACAGT,1.03
22,GGTCAACGAA,1.09
23,GGTCAATGGC,1.09
24,GGTCACCC,0.998
25,GGTCACGACA,1.05
26,GGTCACGTAG,0.968

row,Sequence,switch fluorescence ratio
1,GGTCACTCTA,1.07
2,GGTCACTGAC,1.02
3,GGTCATCTAT,1.01
4,GGTCATCTGT,0.935
5,GGTCCAACA,1
6,GGTCCAACAG,1.01
7,GGTCCATCAG,1.02
8,GGTCCTGGGT,0.985
9,GGTCGAAGCT,0.971
10,GGTCGACCGC,0.931
11,GGTCGACGCA,0.988
12,GGTCGAGGTG,0.99
13,GGTCGATCA,0.955
14,GGTCGATCTG,0.988
15,GGTCGCTCCC,1
16,GGTCGGGGCT,0.973
17,GGTCGGTCTG,1.05
18,GGTCGGTGCT,0.947
19,GGTCGTCGAT,0.963
20,GGTCGTGGCG,1.07
21,GGTCGTTTCT,0.977
22,GGTCTAAGAT,0.979
23,GGTCTAGTTC,0.988
24,GGTCTCCTTC,0.981
25,GGTCTGGAA,1.04
26,GGTCTTAGGT,0.996

row,Sequence,switch fluorescence ratio
1,GGTCTTGACG,0.979
2,GGTGAAACTT,1.04
3,GGTGAACTTA,1.01
4,GGTGAAGGGT,0.998
5,GGTGACCTTT,0.946
6,GGTGACGGTT,1.01
7,GGTGAGAGAG,0.994
8,GGTGAGCCTA,1.02
9,GGTGATCGGT,0.949
10,GGTGATCTTG,1.05
11,GGTGATGAGC,1.04
12,GGTGATGCGA,0.993
13,GGTGATTAG,1.01
14,GGTGCAGAGT,0.971
15,GGTGCATAGA,0.982
16,GGTGCGCATT,1.04
17,GGTGCGGTGT,0.986
18,GGTGCTAAGA,1.04
19,GGTGCTAGAG,1.02
20,GGTGCTGCCG,0.95
21,GGTGGACGCT,0.953
22,GGTGGACGGT,1.01
23,GGTGGCAAGT,1.02
24,GGTGGCATTC,1.06
25,GGTGGCGGGT,0.99
26,GGTGGCGTGG,0.946

row,Sequence,switch fluorescence ratio
1,GGTGGGTGAC,1.01
2,GGTGGGTTT,1.01
3,GGTGGTCAAT,1.01
4,GGTGGTGACA,0.96
5,GGTGGTGTC,0.993
6,GGTGTAAATC,1.01
7,GGTGTAGACC,0.99
8,GGTGTAGTGA,1.04
9,GGTGTCGCAC,0.997
10,GGTGTCTTCG,1
11,GGTGTGATA,1.03
12,GGTGTGCAGG,1.03
13,GGTGTGGGTT,1.04
14,GGTGTTGCG,0.976
15,GGTGTTTATT,0.978
16,GGTTAACCAA,1
17,GGTTAATGCG,0.995
18,GGTTAATTCC,1.08
19,GGTTACGTTC,1.02
20,GGTTAGATGC,1.07
21,GGTTAGCGTA,0.896
22,GGTTAGGTTA,1.01
23,GGTTAGTTGT,0.994
24,GGTTATGCTT,0.97
25,GGTTATGTAG,0.986
26,GGTTCACTAC,1.05

row,Sequence,switch fluorescence ratio
1,GGTTCAGACC,1.03
2,GGTTCATCTG,1.02
3,GGTTCATGTA,1.03
4,GGTTCATTGT,0.933
5,GGTTCCGATT,1.01
6,GGTTCCGTGT,0.99
7,GGTTCGCATG,1.69
8,GGTTCGGACT,1.03
9,GGTTCGGTTA,0.964
10,GGTTGAATG,1.03
11,GGTTGACCTA,1
12,GGTTGCGTAC,0.993
13,GGTTGGATCA,1.06
14,GGTTGGGAGC,0.992
15,GGTTGTACGC,1
16,GGTTTACATG,0.944
17,GGTTTACGAT,1.02
18,GGTTTAGCC,0.955
19,GGTTTAGTCT,1.02
20,GGTTTATTTA,0.988
21,GGTTTCAATC,1
22,GGTTTCAGGA,1
23,GGTTTGATCT,1.02
24,GGTTTGGCTC,1.02
25,GGTTTGGTCC,0.973
26,GGTTTTTCAT,0.95

row,Sequence,switch fluorescence ratio
1,GTAAAAAT,1
2,GTAAACCTTG,1.16
3,GTAAAGACGT,1.63
4,GTAAATGCTG,0.855
5,GTAACAACAA,0.974
6,GTAACTGGAC,1.2
7,GTAACTGGGG,0.997
8,GTAAGACTTT,1.3
9,GTAAGAGGGA,0.979
10,GTAAGATATC,1.03
11,GTAAGATCTA,0.97
12,GTAAGCCGTT,1.03
13,GTAAGGTGCT,1.1
14,GTAAGGTTGG,0.975
15,GTAAGTAAGT,1.04
16,GTAATAGCTC,1.1
17,GTAATATCAG,1
18,GTAATCCTAG,0.984
19,GTAATCTTCG,1.12
20,GTAATGAA,0.99
21,GTAATGAAAG,0.976
22,GTAATGCACA,1.05
23,GTAATGCGGT,1.01
24,GTAATGGG,1
25,GTAATTATTA,0.971
26,GTACAAAGCT,0.986

row,Sequence,switch fluorescence ratio
1,GTACAAGTGC,0.986
2,GTACAG,1.02
3,GTACCAGGTA,1.04
4,GTACCGATTC,1.11
5,GTACCTAAAA,0.941
6,GTACCTGACC,1.79
7,GTACGAGGAA,1.03
8,GTACGCAGCA,1.59
9,GTACGTCCGG,0.972
10,GTACTACTTG,1
11,GTACTGGGGC,0.963
12,GTACTTACGT,1.33
13,GTACTTTTGG,0.969
14,GTAGACAGTC,0.946
15,GTAGACCGTT,1.04
16,GTAGAGCAGC,1.12
17,GTAGAGCATT,0.998
18,GTAGCAGGTA,1.07
19,GTAGCCAT,1.09
